# The supplement of paper PMC7238544
# Where a name gives a salt, the structure may show the parent alone. ± gives the standard deviation of the averaged measurements. The list shows a part of the results.
# Columns and labels:
# Conditions in all cases: priming compound concentration 100 µM
# hAMSC donor 1 [1] = assay: Hoechst total cell count ratio vs vehicle control; higher = more cells (less toxicity)
# hAMSC donor 2 [2] = assay: as above
# hAMSC donor 1 [3] = assay: transgenic luciferase activity (RLU/mg protein) fold change vs vehicle control (ratio); higher = more transgene expression
# hAMSC donor 2 [4] = assay: as above
# hAMSC donor 1 [5] = assay: transfection efficiency (EGFP+ cells / Hoechst count) fold change vs vehicle control (ratio); hAMSC are human adipose-derived mesenchymal stem cells given an EGFP-luciferase plasmid by lipofection; higher = enhanced transfection
# hAMSC donor 2 [6] = assay: as above
# 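For Hoechst total cell count ratio vs vehicle control in this document: compound added 30 min before Lipofectamine 3000 lipoplex delivery, triplicate-well means expressed against DMSO vehicle control wells of the same 96-well plate.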
# 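For transfection efficiency (EGFP+ cells / Hoechst count) fold change vs vehicle control in this document: compounds added 30 min before Lipofectamine 3000 lipoplex transfection, triplicate means relative to DMSO vehicle wells on the same plate, luciferase RLU normalized to BCA total protein.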
# 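For transgenic luciferase activity (RLU/mg protein) fold change vs vehicle control in this document: compounds in DMSO added 30 min before Lipofectamine 3000 transfection of pEGFP-Luc in 96-well plates, values are means of triplicate wells over DMSO vehicle wells on the same plate.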
Compound,Hoechst total cell count ratio (hAMSC donor 1 [1]),Hoechst total cell count ratio (hAMSC donor 2 [2]),transgenic luciferase activity (hAMSC donor 1 [3]),transgenic luciferase activity (hAMSC donor 2 [4]),transfection efficiency (hAMSC donor 1 [5]),transfection efficiency (hAMSC donor 2 [6])
Cc1cccc(Nc2ccncc2S(=O)(=O)NC(=O)NC(C)C)c1 [Torasemide],1.16 ± 0.029,1.13 ± 0.29,1.71 ± 1,1.39 ± 0.65,1.64 ± 0.42,1.74 ± 0.28
Cc1cn([C@H]2C=C[C@@H](CO)O2)c(=O)[nH]c1=O [Stavudine],1.53 ± 0.16,0.774 ± 0.16,0.743 ± 0.24,0.868 ± 0.28,0.878 ± 0.16,1.19 ± 0.16
CN1CC(=O)N2[C@H](c3ccc4c(c3)OCO4)c3[nH]c4ccccc4c3C[C@@H]2C1=O [Tadalafil],1.39 ± 0.09,1.32 ± 0.12,2.79 ± 1.2,1.79 ± 0.23,1.42 ± 0.3,1.17 ± 0.16
CCn1cc(C(=O)O)c(=O)c2ccc(C)nc21 [Nalidixic acid],1.15 ± 0.25,0.991 ± 0.12,3.28 ± 2.2,0.296 ± 0.12,1.27 ± 0.036,1.02 ± 0.34
CCCCNc1cc(C(=O)O)cc(S(N)(=O)=O)c1Oc1ccccc1 [Bumetanide],1.12 ± 0.074,1.23 ± 0.08,2.99 ± 1.6,0.847 ± 0.072,1.05 ± 0.51,1.07 ± 0.36
CC(=O)/N=c1/sc(S(N)(=O)=O)nn1C [Methazolamide],1.29 ± 0.14,0.756 ± 0.12,0.9 ± 0.2,0.616 ± 0.39,0.899 ± 0.29,1.13 ± 0.041
O=C1c2c(O)cc(O)cc2O[C@H](c2ccc(O)c(O)c2)[C@H]1O (racemic) [Taxifolin-(+/-)],1.14 ± 0.089,0.566 ± 0.21,1.54 ± 0.22,0.584 ± 0.068,0.964 ± 0.023,0.681 ± 0.3
CC1CNc2c(cccc2S(=O)(=O)N[C@@H](CCCNC(=N)N)C(=O)N2CC[C@@H](C)C[C@@H]2C(=O)O)C1 (stereo not given in full) [Argatroban],1.49 ± 0.35,1.21 ± 0.13,0.982 ± 0.18,0.883 ± 0.096,0.91 ± 0.16,1.08 ± 0.18
CCC1=C(C)CN(C(=O)NCCc2ccc(S(=O)(=O)NC(=O)N[C@H]3CC[C@H](C)CC3)cc2)C1=O [Glimepiride],1.33 ± 0.099,1.14 ± 0.069,0.721 ± 0.47,0.91 ± 0.15,0.915 ± 0.18,0.853 ± 0.094
COC(=O)C1=C(C)NC(C)=C(C(=O)OCCN(C)Cc2ccccc2)C1c1cccc([N+](=O)[O-])c1 (stereo not given) [Nicardipine hydrochloride],0.483 ± 0.057,0.535 ± 0.09,0.686 ± 0.34,0.401 ± 0.04,0.557 ± 0.12,0.536 ± 0.1
CN1CCCCC1CCN1c2ccccc2Sc2ccc([S+](C)[O-])cc21 (stereo not given) [Mesoridazine besylate],0.953 ± 0.033,1.07 ± 0.11,1.9 ± 0.48,0.377 ± 0.093,1.81 ± 0.41,0.885 ± 0.18
CN1[C@@H](CC(=O)c2ccccc2)CCC[C@H]1C[C@H](O)c1ccccc1 [Lobeline hydrochloride],1.38 ± 0.092,1.55 ± 0.54,0.722 ± 0.16,0.482 ± 0.15,0.888 ± 0.35,0.729 ± 0.18
CC1(C)S[C@@H]2[C@H](NC(=O)[C@H](N)c3ccccc3)C(=O)N2[C@H]1C(=O)O [Ampicillin sodium],1.15 ± 0.16,1.44 ± 0.31,1.24 ± 0.55,0.875 ± 0.18,0.982 ± 0.26,0.973 ± 0.081
CCc1nc(N)nc(N)c1-c1ccc(Cl)cc1 [Pyrimethamine],1.6 ± 0.19,1.51 ± 0.39,1.01 ± 0.075,0.646 ± 0.093,0.963 ± 0.13,1.03 ± 0.09
Nc1nc2c(ncn2COCCO)c(=O)[nH]1 [Acyclovir],1.16 ± 0.2,1.19 ± 0.19,0.375 ± 0.058,0.897 ± 0.22,0.786 ± 0.2,0.996 ± 0.2
COc1cc(-c2ccc(=O)[nH]n2)ccc1OC(F)F [Zardaverine],0.996 ± 0.038,1.19 ± 0.34,1.06 ± 0.039,0.443 ± 0.21,0.905 ± 0.27,1.59 ± 0.22
Nc1nc2ccc(OC(F)(F)F)cc2s1 [Riluzole hydrochloride],1.19 ± 0.047,1.72 ± 0.19,0.517 ± 0.14,1.33 ± 0.21,1.24 ± 0.078,0.96 ± 0.21
Cc1[nH]c(=O)c(C#N)cc1-c1ccncc1 [Milrinone],1.48 ± 0.24,1.34 ± 0.057,0.506 ± 0.15,0.633 ± 0.12,1.2 ± 0.085,0.902 ± 0.027
CCCNCC(O)COc1ccccc1C(=O)CCc1ccccc1 (stereo not given) [Propafenone],0.988 ± 0.15,0.541 ± 0.049,0.287 ± 0.015,0.965 ± 0.18,0.445 ± 0.13,0.894 ± 0.11
CC[C@@H](CO)NCCN[C@@H](CC)CO [Ethambutol],1.22 ± 0.077,1.28 ± 0.15,0.69 ± 0.36,1.2 ± 0.033,0.987 ± 0.38,0.967 ± 0.24
C#C[C@]1(O)CC[C@H]2[C@@H]3[C@H](C)CC4=C(CCC(=O)C4)[C@H]3CC[C@@]21C [Tibolone],0.868 ± 0.077,1.38 ± 0.3,0.372 ± 0.2,1.1 ± 0.11,0.361 ± 0.3,0.519 ± 0.052
COc1ccc(/C=C/C(=O)Nc2ccccc2C(=O)O)cc1OC [Tranilast],1.018 ± 0.0046,0.862 ± 0.18,7.87 ± 0.85,4.83 ± 1.1,1.94 ± 1.2,2.51 ± 0.58
N[C@@H]1CONC1=O [D-Cycloserine],1.14 ± 0.12,1.23 ± 0.12,0.802 ± 0.17,0.646 ± 0.18,1.37 ± 0.16,0.859 ± 0.041
COc1cc(C[C@@H](CO)[C@H](CO)Cc2ccc(O)c(OC)c2)ccc1O [Secoisolariciresinol],1.52 ± 0.24,0.738 ± 0.11,0.411 ± 0.13,0.375 ± 0.1,1.1 ± 0.08,1.06 ± 0.032
NCCc1ccc(O)c(O)c1 [Dopamine hydrochloride],1.2 ± 0.061,1.11 ± 0.059,0.411 ± 0.057,0.706 ± 0.16,0.636 ± 0.22,0.757 ± 0.077
